According to the supplement of paper PMC8728848:
Some of the results follow.

What was measured:
Assay in all cases: glycan array binding signal (z-score within array); higher = stronger binding
Details in all cases: glycan notation: IUPAC condensed, linker removed; mutation: Y228W
[1] = molecular target: Gal(b1-4)GlcNAc(b1-3)Gal(b1-4)GlcNAc(b1-2)Man(a1-3)[Gal(b1-4)GlcNAc(b1-3)Gal(b1-4)GlcNAc(b1-2)Man(a1-6)]Man(b1-4)GlcNAc(b1-4)[Fuc(a1-6)]GlcNAc
Outline: (§1)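 The binding signal is a Z-score computed within each array. Data were drawn from 3228 arrays in the Consortium for Functional Glycomics database, restricted to those with a known protein sequence. Scores were averaged over arrays of the same protein sequence at different concentrations or buffers, and over linkers, and negative values can be taken as non-binding.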

[2] = molecular target: Gal(b1-4)GlcNAc(b1-3)Gal(b1-4)GlcNAc(b1-2)[Gal(b1-4)GlcNAc(b1-3)Gal(b1-4)GlcNAc(b1-6)]Man(a1-6)[Gal(b1-4)GlcNAc(b1-3)Gal(b1-4)GlcNAc(b1-2)Man(a1-3)]Man(b1-4)GlcNAc(b1-4)GlcNAc
Outline: as §1

[3] = molecular target: Gal(b1-4)GlcNAc(b1-3)Gal(b1-4)GlcNAc(b1-2)[Gal(b1-4)GlcNAc(b1-3)Gal(b1-4)GlcNAc(b1-6)]Man(a1-6)[Gal(b1-4)GlcNAc(b1-3)Gal(b1-4)GlcNAc(b1-2)Man(a1-3)]Man(b1-4)GlcNAc(b1-4)[Fuc(a1-6)]GlcNAc
Outline: as §1

[4] = molecular target: Gal(b1-4)GlcNAc(b1-3)Gal(b1-4)GlcNAc(b1-3)Gal(b1-4)GlcNAc
Outline: as §1

[5] = molecular target: Gal(b1-4)GlcNAc(b1-3)Gal(b1-4)GlcNAc(b1-3)Gal(b1-4)GlcNAc(b1-2)Man(a1-3)[Gal(b1-4)GlcNAc(b1-3)Gal(b1-4)GlcNAc(b1-3)Gal(b1-4)GlcNAc(b1-2)Man(a1-6)]Man(b1-4)GlcNAc(b1-4)GlcNAc
Outline: as §1

[6] = molecular target: Gal(b1-4)GlcNAc(b1-3)Gal(b1-4)GlcNAc(b1-3)Gal(b1-4)GlcNAc(b1-2)Man(a1-3)[Gal(b1-4)GlcNAc(b1-3)Gal(b1-4)GlcNAc(b1-3)Gal(b1-4)GlcNAc(b1-2)Man(a1-6)]Man(b1-4)GlcNAc(b1-4)[Fuc(a1-6)]GlcNAc
Outline: as §1

[7] = molecular target: Gal(b1-4)GlcNAc(b1-3)Gal(b1-4)GlcNAc(b1-3)Gal(b1-4)GlcNAc(b1-2)[Gal(b1-4)GlcNAc(b1-3)Gal(b1-4)GlcNAc(b1-3)Gal(b1-4)GlcNAc(b1-6)]Man(a1-6)[Gal(b1-4)GlcNAc(b1-3)Gal(b1-4)GlcNAc(b1-3)Gal(b1-4)GlcNAc(b1-2)Man(a1-3)]Man(b1-4)GlcNAc(b1-4)[Fuc(a1-6)]GlcNAc
Outline: as §1

[8] = molecular target: Gal(b1-4)GlcNAc(b1-3)Gal(b1-4)GlcNAc(b1-3)Gal(b1-4)GlcNAc(b1-3)Gal(b1-4)GlcNAc(b1-2)Man(a1-3)[Gal(b1-4)GlcNAc(b1-3)Gal(b1-4)GlcNAc(b1-3)Gal(b1-4)GlcNAc(b1-3)Gal(b1-4)GlcNAc(b1-2)Man(a1-6)]Man(b1-4)GlcNAc(b1-4)GlcNAc
Outline: as §1

[9] = molecular target: Gal(b1-4)GlcNAc(b1-3)Gal(b1-4)GlcNAc(b1-3)Gal(b1-4)GlcNAc(b1-3)Gal(b1-4)GlcNAc(b1-2)Man(a1-3)[Gal(b1-4)GlcNAc(b1-3)Gal(b1-4)GlcNAc(b1-3)Gal(b1-4)GlcNAc(b1-3)Gal(b1-4)GlcNAc(b1-2)Man(a1-6)]Man(b1-4)GlcNAc(b1-4)[Fuc(a1-6)]GlcNAc
Outline: as §1

[10] = molecular target: Gal(b1-4)GlcNAc(b1-3)Gal(b1-4)GlcNAc(b1-3)Gal(b1-4)GlcNAc(b1-3)Gal(b1-4)GlcNAc(b1-2)[Gal(b1-4)GlcNAc(b1-3)Gal(b1-4)GlcNAc(b1-3)Gal(b1-4)GlcNAc(b1-3)Gal(b1-4)GlcNAc(b1-6)]Man(a1-6)[Gal(b1-4)GlcNAc(b1-3)Gal(b1-4)GlcNAc(b1-3)Gal(b1-4)GlcNAc(b1-3)Gal(b1-4)GlcNAc(b1-2)Man(a1-3)]Man(b1-4)GlcNAc(b1-4)[Fuc(a1-6)]GlcNAc
Outline: as §1

[11] = molecular target: Gal(b1-4)GlcNAc(b1-3)Gal(b1-4)GlcNAc(b1-3)Gal(b1-4)GlcNAc(b1-3)Gal(b1-4)GlcNAc(b1-3)Gal(b1-4)GlcNAc(b1-2)Man(a1-3)[Gal(b1-4)GlcNAc(b1-3)Gal(b1-4)GlcNAc(b1-3)Gal(b1-4)GlcNAc(b1-3)Gal(b1-4)GlcNAc(b1-3)Gal(b1-4)GlcNAc(b1-2)Man(a1-6)]Man(b1-4)GlcNAc(b1-4)GlcNAc
Outline: as §1

[12] = molecular target: Gal(b1-4)GlcNAc(b1-3)Gal(b1-4)GlcNAc(b1-3)Gal(b1-4)GlcNAc(b1-3)Gal(b1-4)GlcNAc(b1-3)Gal(b1-4)GlcNAc(b1-2)Man(a1-3)[Gal(b1-4)GlcNAc(b1-3)Gal(b1-4)GlcNAc(b1-3)Gal(b1-4)GlcNAc(b1-3)Gal(b1-4)GlcNAc(b1-3)Gal(b1-4)GlcNAc(b1-2)Man(a1-6)]Man(b1-4)GlcNAc(b1-4)[Fuc(a1-6)]GlcNAc
Outline: as §1

[13] = molecular target: Gal(b1-4)GlcNAc(b1-3)Gal(b1-4)GlcNAc(b1-3)Gal(b1-4)GlcNAc(b1-3)Gal(b1-4)GlcNAc(b1-3)Gal(b1-4)GlcNAc(b1-2)[Gal(b1-4)GlcNAc(b1-3)Gal(b1-4)GlcNAc(b1-3)Gal(b1-4)GlcNAc(b1-3)Gal(b1-4)GlcNAc(b1-3)Gal(b1-4)GlcNAc(b1-6)]Man(a1-6)[Gal(b1-4)GlcNAc(b1-3)Gal(b1-4)GlcNAc(b1-3)Gal(b1-4)GlcNAc(b1-3)Gal(b1-4)GlcNAc(b1-3)Gal(b1-4)GlcNAc(b1-2)Man(a1-3)]Man(b1-4)GlcNAc(b1-4)[Fuc(a1-6)]GlcNAc
Outline: as §1

[14] = molecular target: Gal(b1-4)GlcNAc(b1-3)Gal(b1-4)GlcNAc(b1-3)Gal(b1-4)GlcNAc(b1-3)Gal(b1-4)GlcNAc(b1-3)Gal(b1-4)GlcNAc(b1-3)Gal(b1-4)GlcNAc(b1-2)Man(a1-3)[Gal(b1-4)GlcNAc(b1-3)Gal(b1-4)GlcNAc(b1-3)Gal(b1-4)GlcNAc(b1-3)Gal(b1-4)GlcNAc(b1-3)Gal(b1-4)GlcNAc(b1-3)Gal(b1-4)GlcNAc(b1-2)Man(a1-6)]Man(b1-4)GlcNAc(b1-4)GlcNAc
Outline: as §1

[15] = molecular target: Gal(b1-4)GlcNAc(b1-3)Gal(b1-4)GlcNAc(b1-3)GalNAc
Outline: as §1

[16] = molecular target: Gal(b1-4)GlcNAc(b1-3)Gal(b1-4)GlcNAc(b1-3)[Gal(b1-4)GlcNAc(b1-3)Gal(b1-4)GlcNAc(b1-6)]GalNAc
Outline: as §1

[17] = molecular target: Gal(b1-4)GlcNAc(b1-3)Gal(b1-4)GlcNAc(b1-6)[Gal(b1-3)]GalNAc
Outline: as §1

[18] = molecular target: Gal(b1-4)GlcNAc(b1-3)Gal(b1-4)[Fuc(a1-3)]GlcNAc(b1-3)Gal(b1-4)[Fuc(a1-3)]GlcNAc
Outline: as §1

[19] = molecular target: Gal(b1-4)GlcNAc(b1-3)GalNAc
Outline: as §1

[20] = molecular target: Gal(b1-4)GlcNAc(b1-3)[Fuc(a1-3)GlcNAc(b1-6)]Gal(b1-4)Glc
Outline: as §1

[21] = molecular target: Gal(b1-4)GlcNAc(b1-3)[Gal(b1-4)GlcNAc(b1-6)]Gal(b1-4)GlcNAc
Outline: as §1

[22] = molecular target: Gal(b1-4)GlcNAc(b1-3)[GlcNAc(b1-6)]Gal(b1-4)GlcNAc
Outline: as §1

[23] = molecular target: Gal(b1-4)GlcNAc(b1-6)Gal(b1-4)GlcNAc
Outline: as §1

[24] = molecular target: Gal(b1-4)GlcNAc(b1-6)GalNAc
Outline: as §1

[25] = molecular target: Gal(b1-4)GlcNAc(b1-6)[Gal(b1-3)]GalNAc
Outline: as §1

[26] = molecular target: Gal(b1-4)GlcNAc(b1-6)[Gal(b1-4)GlcNAc(b1-3)]GalNAc
Outline: as §1

Gal(b1-4)GlcNAc6P = molecular target: Gal(b1-4)GlcNAc6P
Outline: as §1

Gal(b1-6)Gal = molecular target: Gal(b1-6)Gal
Outline: as §1

Gal3S(b1-3)GalNAc = molecular target: Gal3S(b1-3)GalNAc
Outline: as §1

Gal3S(b1-3)GlcNAc = molecular target: Gal3S(b1-3)GlcNAc
Outline: as §1

B1: Epa1-NP-mutant-Y228W (Candida glabrata), Q6VBJ0 (protein)
chain: MILNPALFLNKCVCIYTTLILLLLTNGGYATSSNDISLASKDPTTFPLGCSPDITTPKKGLSMELYSYDFRKKGSYPCWDAAYLDPNYPRTGYKSHRLLAKVDGVTGNINFYYHATKGCTPQLGHLPASYNYPKPLTMTNFTMLLYGYFRPKVTGFHTFTISADDLLFVNFGAGNAFDCCRRDSSADHFGNYQAYAIWGSKTAKDELTVHLDAGVYYPIRLFYNNREWDGALSFTFKTESNENTVSDFSEYFFSLDDTEEGCPGLISYDSSCASVKTSKIIGIDYHTETPNENLVPITKTIYHLGIPCTGTTTTPLCGSGFYDPLANKCVTINTSSTSSVTKTTSHTTSKEVSFHSSISSQKTLIPKSIPSPYGPIKSQSIPTEMETSSEISSSEYAFSDVISTPSHSPYTKKHSSLNSSSYTSTVIHSLTSYSISQGIFSTSLSEQNITSKSSTDKFSTATSMSNNITQSSIIISQFSTNNENYTTTSMHTSSDKISTETLNNSISTTTSILFSNSSTILKNNTTIISSDKDTHYHPVNPTIVCSTNKTEIICASITQPSISNSNNHWSSSVLKFNSTTVRSTLPSSAGSNETSINVPFSSSTESNTSTSSTSTSNSKMVRSTLPSSAGSNETSISVPFSSSTESNTSTSSTSTSNSKMVRSTLPSSAGSNETSINVPFSSSTESNTSTSSTSTSNSKTVRSTPFSSAGIIMTSLSQRNNKSASSYASSNSKCYNTADSCRKVHSTPSYLLTSSYTSEGVDYDCSLVSTKLKINDTNCVNNKHTTKSCLKTSVTTTIPTLEIKTARKSSSNTIGLHSYPTSSPNKSISSAPIIGYISSFKTIKTASPSYQTSDLTTITTITSLNNPGSTAVENTHESNDKSRKTSSNDISSKHSVIKETKDAVESSNKSHQTNTLKCSSIIIASSSHNSYESLGGTTLTLTLSKVYSPQNNDTLPFLEISEVNPSRTVLPESSKMMQYLTSTEERNKTARNTIATNIVSISTFHFEGEGNAIRMGYTQLLLMLIGIIVMNIGT
[1]
  glycan array binding signal (z-score): 0.511
[2]
  glycan array binding signal (z-score): 1.45
[3]
  glycan array binding signal (z-score): 2.98
[4]
  glycan array binding signal (z-score): -0.34
[5]
  glycan array binding signal (z-score): 0.318
[6]
  glycan array binding signal (z-score): 0.589
[7]
  glycan array binding signal (z-score): 3.05
[8]
  glycan array binding signal (z-score): 0.293
[9]
  glycan array binding signal (z-score): 0.548
[10]
  glycan array binding signal (z-score): 1.32
[11]
  glycan array binding signal (z-score): 1.78
[12]
  glycan array binding signal (z-score): 0.116
[13]
  glycan array binding signal (z-score): 1.48
[14]
  glycan array binding signal (z-score): 0.397
[15]
  glycan array binding signal (z-score): -0.018
[16]
  glycan array binding signal (z-score): 0.421
[17]
  glycan array binding signal (z-score): 0.576
[18]
  glycan array binding signal (z-score): -0.038
[19]
  glycan array binding signal (z-score): -0.208
[20]
  glycan array binding signal (z-score): -0.175
[21]
  glycan array binding signal (z-score): 0.838
[22]
  glycan array binding signal (z-score): -0.35
[23]
  glycan array binding signal (z-score): 1.66
[24]
  glycan array binding signal (z-score): 0.665
[25]
  glycan array binding signal (z-score): 2.77
[26]
  glycan array binding signal (z-score): 0.784
Gal(b1-4)GlcNAc6P
  glycan array binding signal (z-score): -0.271
Gal(b1-6)Gal
  glycan array binding signal (z-score): 0.055
Gal3S(b1-3)GalNAc
  glycan array binding signal (z-score): -0.073
Gal3S(b1-3)GlcNAc
  glycan array binding signal (z-score): -0.142
